Laboratory results: the supplement of paper PMC3334620
The full ranking holds about 33,000 sequences; the median of “E-score (-0.5 to 0.5)” is about -0.041, and the highest 2% start at about 0.37. This is one part of the list.

target: T1, Ecm22 (UniProt Q05958); assay: PBM E-score (8-mer binding enrichment) (E-score (-0.5 to 0.5)); higher = stronger / more preferred TF binding; most listed sequences are background and not binding sites; details: protein concentration: 200 nM; construct: GST-full length
T1 sequence: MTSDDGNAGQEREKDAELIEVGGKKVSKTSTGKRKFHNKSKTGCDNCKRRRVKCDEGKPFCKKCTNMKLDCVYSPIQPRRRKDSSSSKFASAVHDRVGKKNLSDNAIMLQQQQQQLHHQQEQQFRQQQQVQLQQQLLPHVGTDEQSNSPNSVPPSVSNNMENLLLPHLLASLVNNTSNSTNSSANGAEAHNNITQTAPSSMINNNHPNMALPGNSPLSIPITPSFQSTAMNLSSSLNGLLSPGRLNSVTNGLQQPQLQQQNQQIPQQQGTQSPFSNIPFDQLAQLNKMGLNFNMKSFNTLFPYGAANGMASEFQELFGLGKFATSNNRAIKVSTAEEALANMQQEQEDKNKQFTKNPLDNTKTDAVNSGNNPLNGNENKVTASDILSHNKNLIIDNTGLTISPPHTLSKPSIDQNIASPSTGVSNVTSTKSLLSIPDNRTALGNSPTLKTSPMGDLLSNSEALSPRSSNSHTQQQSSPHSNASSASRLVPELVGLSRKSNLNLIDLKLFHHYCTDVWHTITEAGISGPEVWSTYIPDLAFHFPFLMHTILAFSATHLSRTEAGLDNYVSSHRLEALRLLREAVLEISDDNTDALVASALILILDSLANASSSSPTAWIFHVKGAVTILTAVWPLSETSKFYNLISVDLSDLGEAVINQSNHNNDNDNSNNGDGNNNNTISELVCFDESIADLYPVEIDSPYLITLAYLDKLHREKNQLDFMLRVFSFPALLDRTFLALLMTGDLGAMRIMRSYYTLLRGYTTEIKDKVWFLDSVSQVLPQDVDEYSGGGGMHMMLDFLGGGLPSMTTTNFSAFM
Method in brief: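 E-scores (a modified Wilcoxon-Mann-Whitney statistic) were assigned by the Universal PBM Analysis Suite to every ungapped eight-base word pooled with its reverse complement. The input came from universal all-10-mer Agilent arrays made double-stranded by primer extension and probed with GST-tagged yeast transcription factors at about 100-200 nM. Fluorescent anti-GST detected bound protein, and masliner normalised the scans.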

Sequence	PBM E-score
CGACCGTC	-0.036
ACAACCGA	0.26
AGCGCGCG	0.162
AATTCACT	-0.294
ACAGTCCT	-0.312
AAACCTCG	0.131
ATCCTCAC	0.0944
ATTGAAGA	-0.154
AGAGCTGA	-0.168
AGAGATTG	-0.0841
ATTGTTCC	-0.00518
AGTCGGCA	0.00779
GCGCAGCC	-0.288
AGGCGGAG	0.0195
AAGCTCGG	0.116
CAATATTA	0.183
CTCCTAAA	-0.166
TAGGAAAA	-0.269
ACCGCTTA	0.115
CCCTGTCC	-0.0638
AATGAAGC	-0.0973
GACTTGAC	-0.143
CCGTCTTA	-0.174
ATGTAATC	0.0489
AATCCCCC	-0.204

Sequence	PBM E-score
GCGGCAAA	-0.104
CGAATGTA	0.175
AATCGCTG	-0.104
CAGCAAGA	-0.0339
CTGCAAAC	0.0508
CGCCATTA	-0.106
CAAACTCC	0.0835
GATAGGCA	0.0183
AGAGACAA	-0.245
TGAGCTAA	-0.196
AACATGGT	-0.166
GGAGCTAA	-0.0044
CGCGTGAA	0.208
TATGAAAA	-0.104
GAACTGGA	-0.0453
ATGGTCAG	-0.0222
AGGATTAA	-0.266
GGACGCCA	-0.132
GCCGACCA	-0.187
CATAGGGG	-0.244
AGGTAAGG	-0.198
CGAGCCGC	0.29
ATCCTAAC	-0.0441
ACAAATGA	-0.158
AGACTACT	0.0928

Sequence	PBM E-score
CTTAGCGA	0.234
GCGTTGCC	-0.00614
ACTTACAC	-0.0703
GACCATTA	-0.0989
AGCGCCTG	-0.148
AATGAGTC	-0.0397
CAATGTCG	0.0816
CCTTACAC	-0.0864
TACACAGA	-0.0979
TACCGAAA	0.159
AACAAGCG	0.214
ATGCTTAG	-0.261
AAGAAGCT	-0.0508
AAATTCCC	-0.163
AATGGCGT	-0.0396
AAATGTCC	-0.0625
GCGCTACA	-0.059
GGGGGATA	-0.233
AAGTAAGA	-0.302
AAGGCACG	-0.00016
GACAGGAC	-0.0177
ACTCATCG	0.0131
CGTGTCCC	0.0542
GGCCAGGA	-0.203
ACACCCAT	0.176

Sequence	PBM E-score
CATCTTTC	-0.144
CATAAATG	-0.268
AACTTACA	-0.11
GCTAACGA	0.281
GTAGCCTA	-0.109
CGACATTA	0.195
CGTAAAAC	0.367
GTAGCGAC	0.111
GCATTGAA	0.0472
AGCCAGAC	0.00884
AGGTAGTC	-0.116
GGCCTAGA	-0.244
ACTCTGAC	-0.0951
ATGATTTC	0.053
GGTCCATA	-0.198
ATCCTGGA	-0.0612
GTGAAACA	0.0398
CCCCCAGG	-0.266
TAGCGTCA	-0.123
CCGGCCGA	-0.113
CAGCCCCG	-0.014
CCATAGCC	-0.339
CACTCTTC	-0.0163
ATCGGCAT	0.0759
GTTAATGA	0.0625

Sequence	PBM E-score
AAGACATC	-0.236
CGACAGCC	0.0652
CACGCAGG	0.0145
ATAGCTGA	-0.15
GATTTCCA	-0.146
ACCCTCAC	-0.215
AAACCAGG	-0.0434
CGCACCTC	0.00643
GGAAGATA	-0.0637
AAGCTAGA	-0.165
CAGTTGCA	0.0569
GTAGCAAA	0.0111
CATGTTAC	0.064
AGGTTGGG	-0.0922
AATCCACA	-0.076
CCGTCAAC	-0.141
CACCCCAG	-0.0849
AGTATGAC	0.0876
AATATCCA	0.0341
TCACCCCA	-0.109
CCGTGATA	-0.151
AAAATGTG	-0.168
GCGATGAC	0.174
GAGTGGAC	-0.0827
ATATAGAT	0.213

Sequence	PBM E-score
GTCGTGTA	0.304
AACCCACG	-0.0836
ATGCTAAC	0.00838
ACTCCGAC	-0.0614
CCACCTAA	-0.305
AGACCGCT	-0.111
CATAACAA	0.00709
ACGGGTGG	0.0111
CTCAGAAG	-0.0949
AAAATTGC	0.221
CATCGAGA	0.0331
CAACTTGC	-0.168
GTGGGAGA	-0.0659
CGACCGAG	0.295
ATGGTTCC	-0.0916
CAATGGTG	-0.208
AAAATGTC	0.0937
CGCGCACA	0.0673
AGCTCTGG	-0.206
GTTTCAGA	-0.174
GACGTACA	0.211
ACCCAAGA	-0.252
AGAGAGTC	-0.168
AGCGAGCC	0.236
CCGTCGGC	0.0969

Sequence	PBM E-score
CAACCCGG	-0.0773
ATAGTAAA	0.0815
TGATCAAA	-0.0221
GAAATAGC	-0.172
AACCGCCA	-0.269
CTGCGGCA	-0.216
CGTTACCC	0.155
CCAGTCAC	-0.272
AACGCCTA	-0.0445
ACACACTC	-0.0104
CATGAATA	-0.127
CATCGACA	-0.0336
ATCACACA	-0.116
AAGTGTGG	-0.184
GGAGCGGA	0.193
AGGCCTGC	-0.18
AGTCCTCG	0.0271
ACCCCGAG	-0.188
CGGGAACG	0.456
ACTCCCTC	-0.184
ACTGACGG	-0.239
ACCATTGG	-0.152
GACGCATA	0.15
ACGTCTAC	0.00544
CCAGAGCG	-0.225

Sequence	PBM E-score
AAATCCCC	-0.161
CTAACTAA	0.00882
ATGCTCGC	0.235
AGCCTGAA	-0.206
AACTTGGC	-0.12
GTGGGCAA	-0.0984
AAGTCGCC	-0.133
CAGGCAAA	0.0456
GCGCTAAC	0.0825
ATCGGAAC	0.288
ACCCCACG	-0.308
CCTGGACC	-0.0767
GAGATCCA	-0.117
GACAATGC	-0.01
CGCGATCC	0.0945
TAGTTATA	0.0456
ACACGAAA	0.224
ACGGTGCG	0.314
GTCAATTA	0.0655
GGCAACAA	-0.0616
AGAGATTC	-0.0312
AGATCTGG	-0.324
AATTCCGA	0.199
GTCACTGA	-0.0926
CATCTTCG	0.153

Sequence	PBM E-score
ATTTCACA	-0.107
TATTGTCA	-0.169
ATTCTGAG	-0.235
ACATGCCT	-0.0959
ACCGCCGA	-0.0535
CTTACAAA	0.133
GTGCGAAA	0.151
GTGGAAAA	0.0147
AGACCACG	-0.221
AAACAAGA	0.152
AGGACTTC	-0.167
AGCAGCGC	-0.113
GGTGAGTA	-0.114
CAAAACCC	-0.0641
AGTAGCAA	0.0359
AGACCCAA	-0.197
CGCGCCAC	-0.114
CACTCATC	-0.0775
CCAGCGTC	-0.145
TCATCAGA	-0.0979
ACCCATGC	-0.268
AGACACCG	-0.117
GGTGGTAC	0.0773
TATTTCGA	0.161
AACCAACG	-0.25

Sequence	PBM E-score
GATGGAGA	-0.088
CCTCCCTA	-0.0494
CTCAGCTC	-0.0614
ATGACAGC	-0.209
GAGGAAGC	0.0341
CTCTACCC	0.0803
CTCGATCC	0.188
CTTTAAGC	-0.0727
ACGGGGCC	0.154
AATACTAG	0.0461
CGACCAAC	0.118
GGGAACAC	0.0114
AAGATCTC	-0.0385
AAGTCACT	-0.0396
CACACGTC	-0.127
ACTCCCGG	-0.205
CAGATGTC	0.149
AACGGAGC	0.121
GGCTGCCA	-0.229
CCCCGTAC	0.377
CACATTAG	-0.0892
ATTGCTAA	0.0762
CGGAACTA	0.124
AGACGACT	0.065
GGATATCC	-0.031

Sequence	PBM E-score
GAATATCC	0.0663
GATCCGCC	0.00521
AGGGAGGA	-0.0641
ACTGTGGA	-0.242
ATTCCCTG	-0.159
GTCGAGCA	-0.113
CGCCTGAC	-0.0755
AGCAGTAG	-0.212
CCGCCTAG	-0.193
AATGGTCC	0.013
GTAGCTAC	0.044
AGACCAGA	-0.168
AAGCGCAA	0.113
ATGGAGTC	-0.195
GAACTGCC	-0.0587
GACCGATA	0.189
ATCTGCGA	-0.0287
CCCGATCG	0.166
ACGCAACT	0.0219
CTTGGATC	-0.127
CGGTGGAA	0.105
AACTTAAG	-0.187
CAAGTCAG	-0.133
GAAGATAA	0.0689
AGGGAAAG	-0.0887

Sequence	PBM E-score
CATCTGGA	-0.101
CCTTCGAG	-0.0778
GATTTTTA	0.0232
CCGGCGTA	0.21
GATAGCCC	-0.241
AACGTGCA	-0.044
AGCACTAG	0.0733
GTTCATCA	-0.012
GCAGATAC	0.00328
CTGATATA	0.106
CTGCGAAA	-0.0747
ACGACTCT	0.308
CGATCACC	0.0902
CTGTAGTA	0.102
AGCTGACT	0.0435
CCGGGTAA	0.0464
GACTACCA	-0.0433
CGAGCCCC	0.0842
GAGGCTGC	-0.14
CGATACCA	0.179
CCAATAGA	-0.143
AACCGTGC	0.0493
ACATTCTA	0.0106
CTGACTAA	-0.285
CGGTAGCC	-0.0334

Sequence	PBM E-score
GGGTATAA	-0.0376
CTGTATCA	-0.193
GAAGAATC	-0.165
CAGTTCGA	-0.0221
CACTCTGA	-0.0911
AGTGGGAA	-0.0286
ATTGTTGG	-0.138
ACCGAAAA	0.257
ATATAGGC	-0.00233
CAACAAGC	-0.0456
AACCTTAA	-0.112
GGGTGCTA	-0.19
GGGGCTAA	-0.239
TGATTTAA	-0.0513
GCAATTGC	-0.0494
AAAGTCTC	-0.145
ACAGCGAG	0.0583
CCACGTGA	-0.244
ATTTGGAG	-0.118
GAGACGTA	0.0975
ACCCTATC	-0.114
TCTGAGCA	-0.139
CCTATTTC	-0.187
CGTACTCC	0.312
CCTGTATA	0.0427

Sequence	PBM E-score
ACATTAAA	0.0976
AGTCATAT	-0.0883
ACCGATCG	0.199
AAGCTTAG	-0.144
CGACAGGA	0.131
AGTGCTAA	-0.0946
TACCTCCA	0.0539
ACACTACC	-0.0934
GTCAGCCA	-0.171
AGGGATTG	-0.0547
GCGCGGTA	0.113
CAACCCTG	-0.0755
ACCTACGT	0.077
GGGACTTA	0.0457
CTACGAAG	0.297
ATCGCACA	0.239
CATGCACA	-0.0752
GCGCATGA	-0.219
AACGTGGG	-0.133
